Measured values as given in the RNAGym collection of RNA variant scans (doi:10.1093/nar/gkz1192).
The source gives no read counts; variants with many changes may rest on few reads.

B1: CPEB3 Ribozyme (parent)
chain: UAACAGGGGGCCACAGCAGAAGCGUUCACGUCGCAGCCCCUGUCAGAUUCUGGUGAAUCUGCGAAUUCUGCUGUAUAUCUC

Variants of: B1
Assay: self-cleavage, relative activity (ratio to wild type); higher = more cleavage; in vitro, sequencing
Outline: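 CPEB3 self-cleaving ribozyme mutant libraries were made by rounds of error-prone PCR, barcoded, and transcribed in vitro with T7 RNA polymerase for 5 hours at 37°C. Cleavage occurred during transcription and a 15 min DNase I step before EDTA stop. RNAs were reverse transcribed with template switching and Illumina-sequenced, with DNA sequencing mapping barcodes to variants. Relative activity is the variant's cleaved/total read fraction divided by wild type's (minimum 5 reads), averaged across three batches.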

Variant | self-cleavage
A18U A35G U41G U48A | 0.34
A18G U54C U60G | 0.18
A18U A21G C23A G36U | 0.13
A18U A20G U60C U69A | 0.54
A18G U51C U74C U80C | 1.1
A18U G22U U43C U78C | 0.14
A18G U54A U74A U78C | 0.81
A18G U54C A57G U66G | 0.25
A18U C40A C50A U72A A75G | 0.06
A18U C23U A64G A65G | 0.05
A18U A35G U41G | 0.4
A18U A21G U58C U60A | 0.19
A18U A21G A28G A65C | 0.18
A18U A20C U78A | 0.23
A18U A21G A28G C29U A56G | 0.08
A18U A35U U54G A56G G61A U78A | 0.05
A18U A28U U72A | 0.18
A18U A21U C32A U60A C62A | 0.05
A18G U60C C62U U80C | 0.22
A18U A28G G33C U41A U74A A75G | 0.06
A18U A45U G70A U78C | 0.11
A18U A20G U48G A56G U80A | 0.15
A18U G19U A28G A45C U51A | 0.15
A18U A45G A56U U72A A77G U78C | 0.17

Variant | self-cleavage
A18U A28G U43C G63A U69A G73U A77U | 0.89
A18U A56G U69A U80C | 1.14
A18U A21U U25C U49A | 0.06
A18U A47G C62U A75G | 0.18
A18U A56G U60C G73U | 0.12
A18U C38U U43A | 0.28
A18U A28C A35G U41C | 0.25
A18U C23A U69A | 0.16
A18U A21U U69C | 0.14
A18U A28G G33C U41C C59A A65U | 0.11
A18U C40U C62U U66C | 0.13
A18U A21C A45U U67A | 0.09
A18U A45G C50U U60A | 0.13
A18U A45G U60A A64G U66A | 0.4
A18U A20G U26A U58A | 0.24
A18G U66C A77G | 0.29
A18G U69G G73A | 0.47
A18U A21G U26C C62U U66C U74A | 0.11
A18U C32A U78C U80C | 0.14
A18U A47G U69A U72C | 1.26
A18U C32A A45U U49C A56G | 0.05
A18U C23U U41C U48C A56G | 0.11
A18U C32U C68A | 0.08
A18U A21C A45G A47U C71A | 0.07

Variant | self-cleavage
A18G U58C U66C | 0.24
A18U A35G A57G U58C A75U | 0.45
A18U A20U A56G U80A | 0.28
A18U G22C G30A U31C U58C | 0.11
A18U A28G U54A U76A | 0.22
A18U A20U U41C A45U U51C C81A | 0.06
A18U A45U U54C | 0.39
A18U A35G C37A A56G G61A | 0.16
A18U A65G U67C | 0.2
A18U C62U G70A | 0.17
A18U A21U A47U | 0.21
A18G U67C U72C | 0.28
A18U C44A U54C C68U A75C | 0.13
A18U C39A U49C | 0.07
A18U A21G A35G U41C U60C A75U | 0.22
A18U A21G U72C | 0.43
A18U A21G U72A | 0.14
A18U A45U A64G | 0.14
A18U A45U A64U | 0.18
A18U A35G U43A | 0.92
A18U A35U U43C U54C U74C | 0.05
A18U A64G U67C | 0.19
A18U C39U U41A | 0.09
A18U C37U U41A G55C U69C U72A | 0.12

Variant | self-cleavage
A18U C27G A45G U49C U51A U72C U78C | 0.13
A18U A28U U54C A65G | 0.11
A18U A28U U58A C59A | 0.14
A18U A20U U43C U80C | 0.19
A18U A21G G61U | 0.12
A18U A28U A65U | 0.36
A18U C29U A35U U51C | 0.08
A18U A35U U69C U74A U80C | 0.13
A18U C50A U72C U80A | 0.12
A18U A45U U58C A64G | 0.12
A18U A28G G30U A56G U67A | 0.08
A18U A35G G36A U41C A65G U74C | 0.29
A18G U51C U80A | 0.82
A18U C27U G30A U51A U72C U80C | 0.21
A18U G30A G36U C79G | 0.1
A18U A28U U51C A56G C59A | 0.11
A18U G19A A20U G33U | 0.15
A18U A35G U51G | 0.87
A18U C34U U41A A56G | 0.17
A18U A64G U67A A75U | 0.1
A18G U60C G70C U80C | 0.18
A18U C29U U43C | 0.08
A18U A45C A75G | 0.33
A18U G30C A56G U69C | 0.07

Variant | self-cleavage
A18U A45U C62A | 0.22
A18U A20U A47G U80C | 0.37
A18G U54C U58A A64G | 0.15
A18U C34G U48C U74A | 0.05
A18U A28U G42A A57G C62A A64U | 0.06
A18U A56G A75G U76A | 0.2
A18U A47G U76A | 0.33
A18U A28G U41C U43C A47G | 0.47
A18U C23G U41C A45G U60C A65G | 0.05
A18U A47G U67A | 0.4
A18U A35U U74C | 0.28
A18U C29U U67A | 0.11
A18G U54C A56G | 0.41
A18G U54C U80A | 1.04
A18U A57G A75U | 0.14
A18U A45U A47U A56G | 0.06
A18U A20G U49A G63A U69C U80C | 0.24
A18U C34U C38U U67C U69A U76C | 0.06
A18G U67C U72A C81U | 0.25
A18U C27G A45G U51A U72C U78C | 0.05
A18U C34A U41C | 0.22
A18U A28G A35G C37A G61A U67C | 0.06
A18G U60A U80C | 0.36
A18G U51G U66C C68G U80C | 0.12

Variant | self-cleavage
A18G U72A U78A | 0.21
A18U C32U A65G U67C U78C | 0.04
A18U A28U U41A | 0.2
A18U A28G U51C U60C | 0.1
A18U A20G A75U | 0.47
A18U A35G U48C U51A | 0.48
A18U A20U A21G G70A U72C U74A | 0.04
A18U A21G G42U | 0.32
A18U A28U U31C A56G | 0.24
A18U A28U A77G U78G | 0.15
A18U A20G U41A U43C U58C A65G U80A | 0.03
A18U A28G C71U | 0.29
A18U G24A U31A U76C A77U | 0.12
A18U A20U U41G G55A A64G | 0.03
A18G U54C A65U U80C | 0.17
A18G U76A U78C | 0.94
A18U C32A A45G U51C | 0.34
A18U C40U G61A U69A | 0.28
A18U A20U U25C G52A | 0.09
A18U A28U U31C A57G | 0.08
A18U A35U C39A | 0.29
A18U A21G U25C U49C A56G U67C | 0.05
A18U A21U U25C U31C U69A | 0.24
A18U C40U A77G | 0.15

Variant | self-cleavage
A18U A21G C40A | 0.24
A18U A35G U41A A77U | 0.14
A18U G19U C37U | 0.12
A18G U69C U72C | 1.23
A18U A28G A77G C79U | 0.11
A18G U66C U76A | 0.31
A18U A28U A57G U60C A75U | 0.14
A18U A20G C23U A64G U69C | 0.11
A18U A28U A65G U69C U74C U78C | 0.13
A18U A21G A64G U69C | 0.18
A18U G24U C37U U41C U60A | 0.18
A18G U54C U58G U67A | 0.38
A18U C38U A47G U72A | 0.05
A18G U54C A64C | 0.12
A18G U51G U78C | 0.36
A18U G19A U25C U67A U76C | 0.16
A18G U54G U72A | 0.39
A18U A28G U51C A77G | 0.31
A18U C27U A35G | 0.13
A18U A21G A28G | 0.16
A18U A20G G30U C40U G46U | 0.07
A18U A21G A47U A56G U60G | 0.14
A18U G24A A56G | 0.15
